Test results from ChEMBL document CHEMBL4888484, “Replenishing the malaria drug discovery pipeline: Screening and hit evaluation of the MMV Hit Generation Library 1 (HGL1) against asexual blood stage Plasmodium falciparum ,using a nano luciferase reporter read-out” (2022).
Screen size: about 150,000 compounds; about 540 (0.36%) showed an effect of 50% or more. The list shows a part of the results.

What follows are compounds tested on Plasmodium falciparum (assay: Primary screen in NF54 nanoGlo assay, in single point, at 2uM, 72h; a lower Z score goes with more inhibition). Settings: timepoint 72 hour.
Type: functional, Erythrocyte
COCc1cc(-c2cnn3c2CCCC3)cs1 was tested, and the “% Inhibition” value was -1% and the Z score was 0.15.
With Cc1onc(-c2ccc(Br)cc2)c1C(=O)NCCN1CCCCC1 the “% Inhibition” value was -8% and the Z score was 1.37.
With CCc1ccc(C(=O)N(C)Cc2nc(CC(C)C)no2)s1 the “% Inhibition” value was -2% and the Z score was 0.31.
With CN(C)c1nc2ccc(OC(=O)COc3ccccc3)cc2s1 the “% Inhibition” value was -21% and the Z score was 3.92.
With Cc1cc(NC(=O)CN2CCN(S(=O)(=O)c3cccs3)CC2)on1 the “% Inhibition” value was -10% and the Z score was 2.15.
Cc1cccc(C2CC2C(=O)N2CCCC(CN3CCOCC3)C2)c1 (stereo not drawn) was tested, and the “% Inhibition” value was -8% and the Z score was 1.14.
For Cc1ccnc(NC(=O)[C@H]2CCCN2C(=O)c2ccccc2)c1C1CC1, the “% Inhibition” value was -11% and the Z score was 1.13.
In the case of CC1CC1C(=O)N1CCCC(CN2CCN(c3ccccn3)CC2)C1 (stereo not drawn), the “% Inhibition” value is reported as -2% and the Z score is reported as 0.26.
For Cc1ccc(-c2nc(C)sc2CC(=O)N2CCc3cc(S(=O)(=O)N(C)C)ccc32)cc1, the “% Inhibition” value was -16% and the Z score was 1.41.
For O=C(Nc1ccc2oc(-c3cccnc3)nc2c1)c1cccnc1, the “% Inhibition” value was 32% and the Z score was -3.6.
COc1cc(OC)cc(N2CCC(NC(=O)[C@H]3C[C@H]3C(=O)N(C)C)CC2)c1 was tested, and the “% Inhibition” value was -9% and the Z score was 1.1.
In the case of CCN(C(=O)[C@H]1CCCOC1)c1ccc(Cl)cc1F, the “% Inhibition” value is reported as -7% and the Z score is reported as 1.
For CCOC(=O)CNC(=O)N1CCC2(CC1)CN(c1cccc(F)c1)[C@@H]2c1ccccc1, the “% Inhibition” value was -4% and the Z score was 0.69.
For CC(C)c1csc(CN(Cc2cccnc2)Cc2ccsc2)n1, the “% Inhibition” value was -9% and the Z score was 1.27.
In the case of CCc1[nH]nc(-c2cccc(OC)c2)c1NC(=O)C1CCCCC1, the “% Inhibition” value is reported as 1% and the Z score is reported as -0.22.
With CCc1nnc(CN(C(=O)Cc2c(C)n[nH]c2C)C(C)C)o1 the “% Inhibition” value was 5% and the Z score was -0.7.
With CO[C@H]1C[C@H]2CC[C@@H](C1)N2c1ncnc2[nH]cnc12 the “% Inhibition” value was 15% and the Z score was -1.94.
For CCc1cnc(CN2CC[C@@]3(C2)NC(=O)N(C(C)C)C3=O)o1, the “% Inhibition” value was -12% and the Z score was 2.21.
With COc1ccc(-c2cnc3ccccc3c2)nn1 the “% Inhibition” value was -13% and the Z score was 2.48.
COC1(C(=O)N2CC[C@H](c3ccc(C)cc3C)C2)CCOCC1 was tested, and the “% Inhibition” value was -7% and the Z score was 1.1.
With COc1cccc(-c2cc3n(n2)CCCN(C(=O)c2ccsc2)C3)c1 the “% Inhibition” value was -3% and the Z score was 0.28.
Cc1cnc(Cn2ccnc2[C@H]2CCOC2)cn1 was tested, and the “% Inhibition” value was -5% and the Z score was 0.46.
In the case of CCc1cnccc1C(=O)NC1CCN(CC2CCCO2)CC1C (stereo not drawn), the “% Inhibition” value is reported as -3% and the Z score is reported as 0.38.
CCOc1ccc(N(Cc2ccccc2F)S(=O)(=O)c2ccc3nnc(C)n3c2)cc1 was tested, and the “% Inhibition” value was 40% and the Z score was -5.82.
COc1ccc([C@@H](NCc2cnn(C)c2)C(F)(F)F)cc1F was tested, and the “% Inhibition” value was -7% and the Z score was 1.02.
With COc1ccccc1-c1nc(NCCc2ccccc2)nc2nn(-c3ccc(F)cc3)c(N)c12 the “% Inhibition” value was 4% and the Z score was -0.63.
With Cc1ccc(CN2CCC(O)(C(F)(F)F)CC2)nc1 the “% Inhibition” value was 6% and the Z score was -0.84.
With O=C(CN1CCCC1)N1N=C(c2cccc(F)c2)C[C@H]1c1ccc2c(c1)OCO2 the “% Inhibition” value was -3% and the Z score was 0.51.
In the case of Cc1ccc(-n2nc(C)c(Cc3nc(CN4C(=O)NC(C)(C)C4=O)no3)c2C)cc1Cl, the “% Inhibition” value is reported as -4% and the Z score is reported as 0.57.
With CCCN(CC(=O)N(Cc1ccccc1)Cc1ccc(C)o1)C(=O)COCc1ccccc1 the “% Inhibition” value was -4% and the Z score was 0.6.
With CC(C)N1CCC(N2C(=O)[C@@H]3CCCN3C2=O)C1=O (stereo partly drawn) the “% Inhibition” value was 2% and the Z score was -0.18.
In the case of C[C@H]1CN(C(=O)NCc2ccc(Cl)cn2)CCC1(F)F, the “% Inhibition” value is reported as -12% and the Z score is reported as 2.26.
CCOC(=O)c1cc2n(n1)C[C@@](C)(C(=O)NC1CCCCCC1)N(Cc1ccc(OCC)cc1)C2=O was tested, and the “% Inhibition” value was 17% and the Z score was -1.94.
In the case of CC(C)[C@@H]1CC[C@@H](C)C[C@H]1OC(=O)N[C@H](C)c1ccccc1, the “% Inhibition” value is reported as -39% and the Z score is reported as 4.53.
With O=C(O)C[C@@H]1CCN(C(=O)C2CCCCC2)C[C@@H]1CCN1CCN(c2ccccc2)CC1 the “% Inhibition” value was -2% and the Z score was 0.36.
In the case of C[C@@H]1C(=O)Nc2ccc(S(=O)(=O)Nc3cccc(C(=O)NC4CC4)c3)cc21, the “% Inhibition” value is reported as -12% and the Z score is reported as 1.44.
For O=C1CN(CC(=O)N[C@@H](Cc2ccccc2Cl)c2ccccc2)C(=O)N1, the “% Inhibition” value was -3% and the Z score was 0.34.
In the case of COC(=O)c1nn(C)cc1-c1ccc(C(=O)N(C)Cc2c(C)noc2C)cc1, the “% Inhibition” value is reported as -5% and the Z score is reported as 0.98.
In the case of CC(C)N1CCN(C(=O)Nc2ccc(-n3ncn(C)c3=O)cc2)CC1, the “% Inhibition” value is reported as -12% and the Z score is reported as 1.51.
In the case of C=C[C@H](C)NC(=O)N(C)Cc1cc(F)c(F)c(F)c1, the “% Inhibition” value is reported as -9% and the Z score is reported as 0.89.
In the case of CN1C[C@@H]2CCC[C@H]1CN(C(=O)CCCc1ccccc1)C2, the “% Inhibition” value is reported as -7% and the Z score is reported as 1.41.
With Cc1ccccc1-c1cnc(CN2CCC[C@@H]3C[C@@]32C(=O)O)o1 the “% Inhibition” value was -5% and the Z score was 1.16.
For Fc1cccc2c1OCC[C@@H]2NCc1ccncc1, the “% Inhibition” value was -5% and the Z score was 0.61.
For CCCN(Cc1cccn1C)C[C@H](O)COC(C)(C)C, the “% Inhibition” value was -14% and the Z score was 2.47.
With NC(=O)Cn1ccnc1C1CCN(S(=O)(=O)N2CCCCCC2)CC1 the “% Inhibition” value was -8% and the Z score was 0.87.
For O=C(CCn1cncn1)NC1CCCCC1Oc1ccccc1 (stereo not drawn), the “% Inhibition” value was -5% and the Z score was 0.72.
Cc1nc(NCc2ccc3nsnc3c2)c2cccnc2n1 was tested, and the “% Inhibition” value was -11% and the Z score was 1.11.
CC(C)c1ncsc1C(=O)NCc1ccn(C)n1 was tested, and the “% Inhibition” value was -7% and the Z score was 1.15.
For CC(C)(F)c1nc(-c2cscn2)no1, the “% Inhibition” value was -3% and the Z score was 0.29.
In the case of O=C(CO[C@H]1CCCc2c[nH]nc21)NC(C1CC1)C1CC1, the “% Inhibition” value is reported as 32% and the Z score is reported as -4.57.
For Cc1nn(C)cc1CNc1ccc(-c2ccccc2)cn1, the “% Inhibition” value was 3% and the Z score was -0.4.
CN(C)S(=O)(=O)N1CCC(CNC(=O)Nc2ccccc2)CC1 was tested, and the “% Inhibition” value was -6% and the Z score was 0.68.
In the case of CCc1nc(C)c(C(=O)N2CCCn3nc(-c4ccccc4)nc32)o1, the “% Inhibition” value is reported as -1% and the Z score is reported as 0.16.
In the case of Cc1nc(C)c(CC(=O)N[C@H]2CC(C)(C)Cc3c2cnn3-c2ccccc2C)s1, the “% Inhibition” value is reported as -5% and the Z score is reported as 1.05.
In the case of Cc1ccc(CNC(=O)N2CCC(n3c(C)cnc3C3CC3)CC2)cc1, the “% Inhibition” value is reported as 10% and the Z score is reported as -1.3.
In the case of Cn1cc(CN2CCC[C@@H]2Cn2cncn2)cn1, the “% Inhibition” value is reported as -11% and the Z score is reported as 1.15.
With COc1cccc([C@H]2C[C@H](NC(=O)N[C@H]3CCO[C@@H]3c3cnn(C(C)C)c3)C2)c1 the “% Inhibition” value was 10% and the Z score was -1.68.
C[C@@](CO)(NCc1ccc(S(N)(=O)=O)o1)C1CCCCC1 was tested, and the “% Inhibition” value was 16% and the Z score was -2.09.
In the case of Clc1ccc(-c2nnc(-c3cccnc3NCCN3CCOCC3)o2)cc1, the “% Inhibition” value is reported as -17% and the Z score is reported as 2.69.
O=C(Cn1ncn2nccc2c1=O)Nc1cc(Cl)cc(Cl)c1 was tested, and the “% Inhibition” value was -3% and the Z score was 0.43.
For O=C(NCc1ccc(N2CCCC2=O)cc1)NCc1ccc(N2CCCC2=O)cc1, the “% Inhibition” value was 6% and the Z score was -1.08.
With CCc1cccc2c(CCNC(=O)NCc3cnn(C)c3)c[nH]c12 the “% Inhibition” value was -8% and the Z score was 1.35.
In the case of Cc1ccc(-c2nc(=O)[nH]c3sc(N)nc23)cc1, the “% Inhibition” value is reported as -36% and the Z score is reported as 4.22.
For CC1CC(C)CC(NC(=O)NCc2ncnn2C)C1 (stereo not drawn), the “% Inhibition” value was 1% and the Z score was -0.09.
CCc1ccccc1N(C)S(=O)(=O)c1cc(-c2nc(C)c(C)s2)sc1C was tested, and the “% Inhibition” value was 7% and the Z score was -0.9.
For Cc1nnc(N2CC[C@H](C(=O)NCc3ccccc3)C2)o1, the “% Inhibition” value was -7% and the Z score was 1.16.
With CN(C(=O)c1ccccn1)[C@H]1CCS(=O)(=O)C1 the “% Inhibition” value was -15% and the Z score was 2.85.
In the case of COc1ccc(S(=O)(=O)c2csc3c2NC(=O)C[C@@H]3c2c(F)cccc2F)cc1, the “% Inhibition” value is reported as -9% and the Z score is reported as 0.93.
With c1cc(-c2nc3c(c(N4CCOCC4)n2)CCC3)ccn1 the “% Inhibition” value was -11% and the Z score was 1.73.
For Cc1ccnc(N2CCC[C@@]3(CCC(=O)N(Cc4cccnc4)C3)C2)c1, the “% Inhibition” value was 2% and the Z score was -0.24.
Cn1nc(-c2ccccc2F)c2cc(C(=O)N3CCN(c4cccc(C(F)(F)F)c4)CC3)sc21 was tested, and the “% Inhibition” value was -12% and the Z score was 1.52.
In the case of CCOC[C@H]1CCCN1C(=O)Cn1cccc(OC)c1=O, the “% Inhibition” value is reported as -16% and the Z score is reported as 2.31.
With COc1ccc(-c2nnc(NC(=O)CS(=O)(=O)c3ccccc3)o2)cc1OC the “% Inhibition” value was -1% and the Z score was 0.1.
In the case of Cc1oc2ccn(C)c(=O)c2c1C(=O)NCc1ccc(F)cc1, the “% Inhibition” value is reported as -7% and the Z score is reported as 1.06.
With C#CCNC(=O)c1cc(CC)c(C)s1 the “% Inhibition” value was 3% and the Z score was -0.39.
In the case of CCc1nc(COc2ccc(C(=O)N[C@H]3CCN(C)C(=O)C3)cc2)no1, the “% Inhibition” value is reported as -6% and the Z score is reported as 0.57.
Cc1noc(C)c1CN1CC2(CCN(C(=O)c3ccc(C#N)nc3)CC2)CC1=O was tested, and the “% Inhibition” value was -3% and the Z score was 0.42.
For Cc1cc(C)cc(-n2nc(-c3ccco3)nc2[C@H]2CCCN(C(N)=O)C2)c1, the “% Inhibition” value was -2% and the Z score was 0.27.
In the case of Cc1cccc(CC(=O)N2CC[C@H](Cc3noc(C4CC4)n3)C2)c1, the “% Inhibition” value is reported as -10% and the Z score is reported as 1.24.
In the case of O=C(NCCc1ccccn1)C1CCOCC1, the “% Inhibition” value is reported as -28% and the Z score is reported as 3.24.
Cc1ccc(CNCc2ccc(N3CCCC3=O)cc2)c(C)c1 was tested, and the “% Inhibition” value was 29% and the Z score was -3.94.
In the case of CN1CCC2(CC1)Nc1cc(F)c(F)cc1-c1nc(=O)c(-c3ccc(F)cc3)nn12, the “% Inhibition” value is reported as 5% and the Z score is reported as -1.
In the case of Cc1nc(NC(=O)[C@H](C)c2cccs2)cc(C2CC2)n1, the “% Inhibition” value is reported as -12% and the Z score is reported as 2.27.
In the case of CCCCS(=O)(=O)N[C@H]1C[C@H](c2cc(=O)[nH]c(COC)n2)C1, the “% Inhibition” value is reported as -14% and the Z score is reported as 1.85.
